Measured values taken from the supplement of paper PMC12217912.
The other results are listed elsewhere or left out. Sequences were assembled here from the parent chain. Inactive controls read about 0.05.

B1: TEV protease; numbered along this chain (parent)
chain: MGESLFKGPRDYNPISSSICHLTNESDGHTTSLYGIGFGPFIITNKHLFRRNNGTLVVQSLHGVFKVKDTTTLQQHLVDGRDMIIIRMPKDFPPFPQKLKFREPQREERICLVTTNFQTKSMSSMVSDTSCTFPSGDGIFWKHWIQTKDGQCGSPLVSTRDGFIVGIHSASNFTNTNNYFTSVPKNFMELLTNQEAQQWVSGWRLNADSVLWGGHKVFMVKPEEPFQPVKEATQL

Variants of: B1
Experiment: raw area under fraction-flipped curve 0-4 h after induction (AUC4h, not background-subtracted), DNA-recorder readout of cleavage of the substrate (dimensionless); higher = more cleavage of the substrate by the protease variant
Conditions: temperature: 34 °C; time window: 0-4 h after rhamnose induction
Description: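 In vivo DNA recorder in E. coli TOP10(DE3) ΔrhaA at 34 °C. Each TEVp single-site mutant (parent TEVp 0) is paired with a single-site variant of the 7-mer TEVs (canonical ENLYFQ|S). The substrate sits between flexible linkers in a Bxb1-sfGFP-TEVs-SsrA fusion, so cleavage stabilises Bxb1 and speeds flipping of a recombination array, read by NGS. The value is the raw area under the fraction-flipped curve over 0-4 h after rhamnose induction (AUC4h), with ≥20 reads per time point. It is not background-subtracted; inactive controls average about 0.047.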
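Note: Bxb1 expression induced with 0.2% (w/v) L-rhamnose at OD600 near 0.5, cultures sampled hourly, flipped fraction per protease–substrate barcode pair counted by paired-end Illumina sequencing.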

| Variant | area with substrate ENLYFQA | area with substrate ENLYFQC | area with substrate ENLYFQG | area with substrate ENLYFQI | area with substrate ENLYFQK | area with substrate ENLYFQL | area with substrate ENLYFQM | area with substrate ENLYFQN | area with substrate ENLYFQS | area with substrate ENLYFQT | area with substrate ENLYFQV | area with substrate ENLYFQW | area with substrate ENLYFQY | area with substrate ENLYFQH | area with substrate ENLYFQP | area with substrate ENLYFQR | area with substrate ENLYFQD | area with substrate ENLYFQE | area with substrate ENLYFQQ | area with substrate ENLYFQF |
| --- | --- | --- | --- | --- | --- | --- | --- | --- | --- | --- | --- | --- | --- | --- | --- | --- | --- | --- | --- | --- |
| MGESLFKGPRDYNPISSSICHLTNESDGHTTSLYGIGFGPFIITNKHLFRRNNGTLVVQSLHGVFKVKDTTTLQQHLVDGRDMIIIRMPKDFPPFPQKLKFREPQREERICRVTTNFQTKSMSSMVSDTSCTFPSGDGIFWKHWIQTKDGQCGSPLVSTRDGFIVGIHSASNFTNTNNYFTSVPKNFMELLTNQEAQQWVSGWRLNADSVLWGGHKVFMVKPEEPFQPVKEATQL [L112R] | 0.0828 | 0.103 | 0.0771 | 0.0733 | 0.0604 | 0.0501 | 0.0741 | 0.072 | 0.0894 | 0.0727 | 0.0558 | 0.0724 | 0.0659 | – | – | – | – | – | – | – |
| MGESLFKGPRDYNPISSSICHLTNESDGHTTSLYGIGFGPFIITNKHLFRRNNGTLVVQSLHGVFKVKDTTTLQQHLVDGRDMIIIRMPKDFPPFPQKLKFREPQREERICEVTTNFQTKSMSSMVSDTSCTFPSGDGIFWKHWIQTKDGQCGSPLVSTRDGFIVGIHSASNFTNTNNYFTSVPKNFMELLTNQEAQQWVSGWRLNADSVLWGGHKVFMVKPEEPFQPVKEATQL [L112E] | 0.0567 | 0.0707 | 0.147 | – | 0.0611 | 0.0621 | 0.01 | 0.0532 | 0.0584 | 0.0606 | 0.0375 | 0.0505 | – | 0.0617 | 0.0603 | 0.0548 | – | – | – | – |
| MGESLFKGPRDYNPISSSICHLTNESDGHTTSLYGIGFGPFIITNKHLFRRNNGTLVVQSLHGVFKVKDTTTLQQHLVDGRDMIIIRMPKDFPPFPQKLKFREPQREERICLVTTNFQTKGMSSMVSDTSCTFPSGDGIFWKHWIQTKDGQCGSPLVSTRDGFIVGIHSASNFTNTNNYFTSVPKNFMELLTNQEAQQWVSGWRLNADSVLWGGHKVFMVKPEEPFQPVKEATQL [S121G] | 0.106 | – | 0.0882 | 0.0643 | – | 0.112 | – | 0.0774 | 0.11 | 0.0704 | 0.0634 | – | – | 0.0881 | 0.0659 | 0.0565 | 0.0345 | 0.0307 | – | – |
| MGESLFKGPRDYNPISSSICHLTNESDGHTTSLYGIGFGPFIITNKHLFRRNNGTLVVQSLHGVFKVKDTTTLQQHLVDGRDMIIIRMPKDFPPFPQKLKFREPQREERICLVTTNFQTKPMSSMVSDTSCTFPSGDGIFWKHWIQTKDGQCGSPLVSTRDGFIVGIHSASNFTNTNNYFTSVPKNFMELLTNQEAQQWVSGWRLNADSVLWGGHKVFMVKPEEPFQPVKEATQL [S121P] | 0.088 | 0.115 | 0.076 | – | 0.0653 | 0.0644 | – | 0.0764 | 0.103 | 0.0694 | – | – | 0.0697 | – | 0.0645 | 0.0634 | – | – | 0.0702 | – |
| MGESLFKGPRDYNPISSSICHLTNESDGHTTSLYGIGFGPFIITNKHLFRRNNGTLVVQSLHGVFKVKDTTTLQQHLVDGRDMIIIRMPKDFPPFPQKLKKREPQREERICLVTTNFQTKSMSSMVSDTSCTFPSGDGIFWKHWIQTKDGQCGSPLVSTRDGFIVGIHSASNFTNTNNYFTSVPKNFMELLTNQEAQQWVSGWRLNADSVLWGGHKVFMVKPEEPFQPVKEATQL [F101K] | 0.0636 | 0.0441 | 0.0323 | 0.0463 | 0.0614 | – | – | – | 0.0605 | – | 0.0513 | – | – | – | 0.0499 | – | – | – | – | – |
| MGESLFKGPRDYNPISSSICHLTNESDGHTTSLYGIGFGPFIITNKHLFRRNNGTLVVQSLHGVFKVKDTTTLQQHLVDGRDMIIIRMPKDFPPFPQKLKFREPYREERICLVTTNFQTKSMSSMVSDTSCTFPSGDGIFWKHWIQTKDGQCGSPLVSTRDGFIVGIHSASNFTNTNNYFTSVPKNFMELLTNQEAQQWVSGWRLNADSVLWGGHKVFMVKPEEPFQPVKEATQL [Q105Y] | 0.0902 | 0.104 | 0.106 | 0.0594 | 0.0661 | 0.0634 | 0.0755 | 0.0811 | 0.101 | 0.0613 | 0.0816 | 0.0648 | – | – | – | 0.0413 | – | – | – | 0.0712 |
| MGESLFKGPRDYNPISSSICHLTNESDGHTTSLYGIGFGPFIITNKHLFRRNNGTLVVQSLHGVFKVKDTTTLQQHLVDGRDMIIIRMPKDFPPFPQKLKFREPQREERICLVWTNFQTKSMSSMVSDTSCTFPSGDGIFWKHWIQTKDGQCGSPLVSTRDGFIVGIHSASNFTNTNNYFTSVPKNFMELLTNQEAQQWVSGWRLNADSVLWGGHKVFMVKPEEPFQPVKEATQL [T114W] | 0.105 | 0.113 | 0.0768 | 0.0362 | 0.0554 | 0.0521 | 0.0821 | 0.101 | 0.0938 | – | 0.0468 | 0.0479 | – | 0.077 | 0.0584 | 0.0541 | 0.0724 | 0.0613 | – | – |
| MGESLFKGPRDYNPISSSICHLTNESDGHTTSLYGIGFGPFIITNKHLFRRNNGTLVVQSLHGVFKVKDTTTLQQHLVDGRDMIIIRMPKDFPPFPQKLKFREPQREERICLVATNFQTKSMSSMVSDTSCTFPSGDGIFWKHWIQTKDGQCGSPLVSTRDGFIVGIHSASNFTNTNNYFTSVPKNFMELLTNQEAQQWVSGWRLNADSVLWGGHKVFMVKPEEPFQPVKEATQL [T114A] | 0.0877 | 0.11 | 0.0906 | 0.0377 | 0.0716 | 0.0612 | 0.106 | – | 0.107 | 0.0712 | 0.0608 | 0.0696 | 0.086 | – | – | 0.067 | 0.0757 | – | 0.0807 | – |
| MGESLFKGPRDYNPISSSICHLTNESDGHTTSLYGIGFGPFIITNKHLFRRNNGTLVVQSLHGVFKVKDTTTLQQHLVDGRDMIIIRMPKDFPPFPQKLKFREPQREERICLVTTNRQTKSMSSMVSDTSCTFPSGDGIFWKHWIQTKDGQCGSPLVSTRDGFIVGIHSASNFTNTNNYFTSVPKNFMELLTNQEAQQWVSGWRLNADSVLWGGHKVFMVKPEEPFQPVKEATQL [F117R] | 0.11 | – | – | 0.0524 | – | – | 0.0847 | 0.0684 | 0.108 | 0.0575 | 0.0631 | – | – | 0.083 | – | 0.0683 | 0.0917 | – | 0.0752 | – |
| MGESLFKGPRDYNPISSSICHLTNESDGHTTSLYGIGFGPFIITNKHLFRRNNGTLVVQSLHGVFKVKDTTTLQQHLVDGRDMIIIRMPKDFPPFPQKLKFREPQRGERICLVTTNFQTKSMSSMVSDTSCTFPSGDGIFWKHWIQTKDGQCGSPLVSTRDGFIVGIHSASNFTNTNNYFTSVPKNFMELLTNQEAQQWVSGWRLNADSVLWGGHKVFMVKPEEPFQPVKEATQL [E107G] | 0.0802 | 0.0866 | 0.102 | 0.0567 | 0.0589 | – | 0.0873 | 0.0748 | 0.105 | 0.0722 | 0.0551 | – | – | 0.0751 | – | 0.0402 | – | 0.0726 | 0.0581 | – |
